Reference: the supplement of paper PMC11417369
The other results are listed elsewhere or left out.

Tested on: PfHDP1 homeodomain (GST-tagged)
Test: gcPBM binding intensity (ln(normalized median fluorescence intensity)); higher = stronger DNA binding
Summary of the method: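 DNA-binding domains from P. falciparum, fused to GST and produced in E. coli, were put on an Agilent 4 × 180k double-stranded probe array for 1 h in 1× PBS holding 1% milk, 0.2 mg/ml BSA, 0.5% salmon testes DNA and 0.03% Triton X-100. Probes were primer-extended, 36 bp long and drawn from intergenic genomic regions, with negative controls included. After Alexa488 anti-GST antibody detection and a 488 nm scan, binding intensity was set as the highest Masliner-normalised natural-log median intensity across replicate spots of either probe orientation.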

Sequence	gcPBM binding intensity (ln)
TTTCTATAATATATATGTACATATATAATATGTCGT [XGTACX_site3676]	6.58
AGAAGATTAAAAATTGCACACAAAAATATATTTTCT [CACACA_site8359]	9.88
TACCTATATACATACACACACATATAACCAATGTAG [CACACA_site7096]	6.94
TAATAAATAAAAACATGTACATATATACATATATGT [XGTACX_site485]	6.35
TAAACTTTCCAGTGTTGTACATAATAATTATTATAT [XGTACX_site8896]	6.55
AAAGATATGAAATATACACACTTCTTTGGTATTATT [CACACA_site6352]	6.22
ATTCATTCATATGTTACACACACACGCCCACATAAA [CACACA_site7513]	7.17
TAAAAAAAGGTTATTGGTACACACATATGTATATAT [XGTACX_site1029]	6.56
TTATATATATATATATATATTTACATAATAATATGT [GTGCAC_negctrl_site388]	7.08
AGTTTGTCAATCAACACACACCTATTTATTATATAT [CACACA_site6030]	6.42
TACAAGCCCAATTCAAGTACATATATATATATATAT [XGTACX_site5569]	9.41
TATTTATGTATATGCTGTACGCATTTGTGAAACATA [XGTACX_site4688]	6.63
AACCAATTAGAAGGATCCAGAACTTATTTGTTTTTA [CACACA_negctrl_site1744]	5.85
AGAAAATATACAAAACGTACTTATATATTATATCTA [XGTACX_site3104]	5.97
AAAAAAAAAAAAGAAACACACATATATATATATATA [CACACA_site140]	9.3
GTTTGATTAAACTTGACACACATATATATAAATATA [CACACA_site1784]	6.7
GTTAGAGGGAAAAAGAGTACATATATGTGGATAATT [XGTACX_site2064]	6.96
TCATATATCATAACAGTGCAAAAAAAAAAAAATTAT	8.69
TATGAAAGAAATAGTACACACATAAACATTTGTAAA [CACACA_site2783]	6.22
TAATATTCAATTATACGTACACATATATATATATAT [XGTACX_site4245]	9.22
GTTGCGTATATATACACACATACATATATATATATA [CACACA_site1607]	9.15
TTATATAATAAAAATTGTACATATTATATATATATT [XGTACX_site3427]	6.19

Sequence	gcPBM binding intensity (ln)
TTACGCATACTAATTACACACAAATAGATGAATATA [CACACA_site1338]	6.71
ATAAAAAAATAAATTAGTACATATATATATATATAT [XGTACX_site6971]	9.33
TGTTTAAATTTTTTGTTTTTTTTTTTATAAAGCAAA [TGCATGCA_negctrl_site313]	6.09
GTTGAACATAGATGCACACACATAAAATAAAAAAAA [CACACA_site5353]	8.65
ACATATATATATAAATATATATATATATAAATATAT [CACACA_negctrl_site895]	6.89
TTGTTGTTATTTAAAACACACATCAATCATCTTAAC [CACACA_site1142]	6.21
TGAAGGTCAGTTCACAGTACCCAGTAACTCTACGGA [XGTACX_site2554]	5.56
TATATTTTTTTAAAAAGTACTTTGTATATATATATA [XGTACX_site1300]	9
TTAAATTAAAACAAATGTACAAAGTGCATATTTTTT [XGTACX_site8143]	8.64
ATTTTTTTTTCTTTCGCACACGTGAAAGAATTTCTA [CACACA_site2052]	6.93
ATAATTTAATACTAGTGTACAGAAAAAAAAAAAAAA [XGTACX_site6756]	6.54
ATATTATATTATATAACACACATTTTTCATAACACT [CACACA_site407]	6.67
AAGTGTATACAGAAGAGTACAAACAATTTTTTTCTT [XGTACX_site7387]	6.13
TATATATATTTAAGGTGTACATAAATAACAAAATAT [XGTACX_site2641]	6.74
AAAAAACACAGACACACACACATATACATACATACA [CACACA_site2666]	7.19
ATATTTCGTCTAAAAAGTACACAACAATAAAAAGTA [XGTACX_site6668]	7
TTAGGTTTATACACTACACACATTATTCATAAAAAA [CACACA_site871]	6.8
TTTTTTAAATAATATTGTACAAAAAATGTATAAATA [XGTACX_site3010]	6.59
TATTGTTATGTCGTTATTAACTTTCTTTAATTAATT [CACACA_negctrl_site174]	6.91
TGAAAGTTCAATAATTGTACATGTGGAAATTCATAC [XGTACX_site1378]	6.87
AAATATTCATAGTATACACACATTTATATATAATCA [CACACA_site771]	6.66
AAAATTATAAATCTTGCACACAAAAAAAATAATAAA [CACACA_site8771]	8.27

Sequence	gcPBM binding intensity (ln)
TAAATATATTCAATCACACACATTCGTTTTTTTTTT [CACACA_site234]	6.48
AATTATTTTATGTGAGGTACACCACACATGAAGGGG [XGTACX_site8450]	6.64
AACAAATACAGACACACACACACACTAATAAAAAAA [CACACA_site8067]	6.93
AAAAATTTTATATTCACACACATATATATATATATA [CACACA_site624]	9.29
TATTTTTATATTTTTGCACACATTCTTTACTCTTCA [CACACA_site2211]	10.6
GATATATATTAATATACACACACACCGATATATATA [CACACA_site8462]	7.04
TTTTGAAACATATGATGTACACGAACATTTAAAAAA [XGTACX_site474]	6.6
AATAAATAGATAAGCACACAAGCATATAGACATATA [CACACA_site222]	6.3
AAATTCCACCAACACACACACATATAAATAAATAAA [CACACA_site1233]	6.84
TTTATATTTTATAAATTATTCATAAATATATTTGTA [TGCATGCA_negctrl_site175]	6.34
CTCTATAAATGCTGCACACACATTTAATTATTTAAG [CACACA_site2582]	8.11
TATAAATATAAATATACACACATATTTATATTTATA [CACACA_site7053]	6.52
TATAAATAAAAACACACACACACATATATATATATA [CACACA_site2268]	9.31
AAATGAAATACATCCTGTACATAGTAATGCTAACAA [XGTACX_site6600]	6.3
TTTTACAATGAAAGGTGTACAAGTAACAGTAGAACA [XGTACX_site1528]	7.11
ATGAAAAAATTTATATGTACTTAAAATATAATCATA [XGTACX_site1228]	6.13
TATATTATTAAGATATGTACATAATTATAAATTTAA [XGTACX_site6848]	6.71
ATAAATAAAGGACACACACACACACTAGAAAAAAAA [CACACA_site5450]	6.77
TTGTGCTTGATATCACGGACAAGCTCATATTATATA [XGTACX_site4553]	6.03
AAAATAAAATTAGTTGCATGCAACTTAAACAGAAAT [TGCATGCA_site860]	9.2
ATGGTAGTTCTCCATGCATGCCTTTTTATTATCATA [TGCATGCA_site681]	6.51
TGTGCCCAAAATTATGCACACACCTAAAATTAATTT [CACACA_site2914]	10.5

Sequence	gcPBM binding intensity (ln)
TTTTTGTAAAAACACACACACAAACAGAAAAAATAA [CACACA_site2076]	7.15
ATTATCATAATGTTCACACATATGGTATATATAGAT [CACACA_site6113]	6.59
ATATGTGTATGTGCGTGTACATATCTATACAGTTGT [XGTACX_site6540]	7.26
ACTATTTAGTCTGGTGGTACTTTATATATAATTTCT [XGTACX_site5618]	6.59
TTTTATCTTTTTTTATTTTAATGTATTATTTTTATG [XGTACX_negctrl_site24]	6.61
ATATGTAGATGATATTATTACTTTTCAAAAATTCAA [CACACA_negctrl_site933]	6.22
TAATAAGAAATAACAGGTACACATATATAAATATTA [XGTACX_site2976]	6.32
AAGTATAAAAAAAGGCGTACAAAAAAAAAAAAAAAA [XGTACX_site7309]	6.29
TTTTTCATTAATACAAGTACAAAATGATGTTGACAT [XGTACX_site1475]	6
ATAAAAGATATTTTTACACACTTTTGATGAGATCGT [CACACA_site3053]	6.31
TTCAAGGTTTTAGATTGTACAATTATTATATATATA [XGTACX_site8982]	7.16
GGTTGTATAAGTTTTTGTACATATATATATATATAT [XGTACX_site7487]	9.19
ATACCAACATATTATACACACCTTTATATTTTTTTT [CACACA_site5217]	6.89
GAATATAATCTGTATTGTACGAAAGTTGAACACTTG [XGTACX_site8895]	6.3
TGAGCATAAAAAGGGTGTACTTAAATATATTATATA [XGTACX_site7556]	7.39
TTTAGATAATTCATTACACACATGTATTTATATATA [CACACA_site5847]	6.46
TATATATATATATATATATATACAAATATATATTAT [CACACA_negctrl_site1729]	9.4
TTGTATTATTATGTTGCACACATTTTATATAAAATA [CACACA_site3641]	9.14
AAATATAAACGGCACACACACAAAAAAAGAAAAAAA [CACACA_site649]	6.31
AGAAACCTTGTTAGTTAGCATATATATATATATATA [CACACA_negctrl_site372]	9.53
TATTTTATACATATTTTACACACTAATATATACATA [CACACA_site7998]	6.72
TTTATTATACAAAATTGTACTTTATAATTTTATGTA [XGTACX_site5846]	6.31
